Test results: PubChem BioAssay AID624417 (National Center for Advancing Translational Sciences (NCATS), 2012)
The campaign covered roughly 410,000 compounds. About 6,400 (1.6%) were called active. Inconclusive means that the source gave no clear call. Such entries were picked first, then a sample of the others. The call rests on the fitted dose curve; in most records, active means well fitted inhibition curve with a large enough effect; inconclusive means small, poorly fitted or top-dose-only effect; inactive means no such curve, though single readings can be large or run the other way. Potencies of inconclusive entries are left out as doubtful fits.

biological target: Glucagon-like peptide 1 receptor (Homo sapiens) (UniProt P43220); test: qHTS of GLP-1 Receptor Inverse Agonists (Inhibition Mode); settings: HEK293 GLP-1R CRE-luciferase, luminescence, 24 h, GLP-1R form is constitutively active; series mostly up to 38.3 µM; further: nearly all actives have a fitted effect of over 55% in size
Chain of UniProt P43220 (P43220 whole entry, looked up): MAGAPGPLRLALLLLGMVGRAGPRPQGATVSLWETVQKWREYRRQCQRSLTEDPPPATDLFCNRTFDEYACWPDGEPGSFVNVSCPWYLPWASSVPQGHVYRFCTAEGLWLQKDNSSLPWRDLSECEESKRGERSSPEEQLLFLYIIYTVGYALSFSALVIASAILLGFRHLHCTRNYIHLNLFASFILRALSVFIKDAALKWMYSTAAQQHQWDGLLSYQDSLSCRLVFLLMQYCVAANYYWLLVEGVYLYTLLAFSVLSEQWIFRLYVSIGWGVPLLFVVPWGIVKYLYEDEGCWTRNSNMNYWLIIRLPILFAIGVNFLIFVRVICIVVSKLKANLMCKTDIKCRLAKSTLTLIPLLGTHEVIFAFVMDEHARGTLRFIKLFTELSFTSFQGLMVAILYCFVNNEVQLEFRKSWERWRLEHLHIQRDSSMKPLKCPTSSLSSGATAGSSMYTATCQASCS
Method in brief: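 HEK293 cells stably co-expressing constitutively active GLP-1R and a cAMP-responsive luciferase reporter were seeded in DMEM with 10% Nu serum, given compounds after 12 h, and incubated 24 h at 37 deg C. Luminescence was then read.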
Potency means the concentration at half of the fitted maximal effect; tags describe the fitted curve by direction and shape.

Compound	Potency
Cc1ccc([C@H]2N[C@]3(CCCN(Cc4ccc(Cl)cc4)C3=O)[C@H]3C(=O)N(Cc4ccccc4)C(=O)[C@@H]23)cc1	inconclusive [inhibitor, single point]
CCCCCC(=O)N1C[C@@H](n2cc(COC(=O)c3ccccc3)nn2)[C@H](O)C[C@@H]1c1ccc(OC)cc1	inconclusive [inhibitor, partial curve, poor fit]
Cc1ccc(S(C)(=O)=O)cc1C(=O)Nc1ccc(S(=O)(=O)Nc2nccs2)cc1	inactive
COc1ccc(-n2c(/C=C/c3cccc4ccccc34)nc3ccccc3c2=O)cc1OC	inconclusive [inhibitor, single point]
CC1(Cc2cccc(C#N)c2)C(=O)Nc2ccc(-c3cccc(C(F)(F)F)c3)cc21 (configuration not stated)	inconclusive [inhibitor, single point]
CCOC(=O)C1CCN(CC(=O)Nc2ccc(S(=O)(=O)N3CCC(C)CC3)cc2)CC1	inconclusive [inhibitor, single point]
COc1ccc2[nH]cc(CCNC(=O)Cc3ccc(Cl)cc3)c2c1	inconclusive [inhibitor, partial curve, poor fit]
CCN(CC)c1nc(-c2ccccc2)ncc1S(=O)(=O)c1ccc(C)cc1	inconclusive [inhibitor, single point]
COc1ccc(NC(=O)[C@@H]2CCCN2C(=O)[C@@H]2Cc3ccccc3CN2C(=O)OC(C)(C)C)cc1	inconclusive [inhibitor, single point]
CCN(CC)c1ccc(C2C(C(=O)OC)=C(C)NC(C)=C2C(=O)OC)cc1	inactive
COc1ccc(C(=O)Nc2ccc(-c3nc4ncccc4o3)cc2C)cc1Br	inactive
COCCNC(=O)CN1CCC(NC(=O)Nc2ccccc2)CC1	inactive
COc1ccc(NC(=O)c2c(NCc3ccc(C)o3)sc3c2CCCCC3)c(OC)c1	inconclusive [inhibitor, single point]
CS(=O)(=O)c1ccc(Nc2nc(C(N)Cc3ccccc3)cs2)cc1 (configuration not stated)	inconclusive [inhibitor, partial curve, poor fit]
O=S(=O)(c1cccc(COc2c(Cl)cccc2Cl)c1)N1CCOCC1	inconclusive [inhibitor, single point]
O=C(C1COc2ccccc2O1)N1CCN(c2nc3c(F)cc(F)cc3s2)CC1 (configuration not stated)	inconclusive [inhibitor, single point]
O=C(NCCc1ccccc1)c1ccc([N+](=O)[O-])cc1	inconclusive [inhibitor, partial curve]
